The supplement of paper PMC4967469
By IC50 is meant the dose at which the fit gives 50% viability; a limit (>, <) means that the fit lies beyond the doses tested. AUC, from the same fit, is the share of area under the viability curve across the 256-fold dose range; the more sensitive the line, the further below 1. For part of these data: The top dose, if marked as inferred, is not printed in the source and was worked back from the curve model. For part of these data: An entry number marks a drug with two screens in the source, which often give different values.

Key:
Test in all cases: Viability of human cancer cell lines after 72 h of drug (GDSC screen)
[1] = compound: C[C@]1(c2nc3c(C(N)=O)cccc3[nH]2)CCCN1 [ABT-888]; conditions: top dose 5 µM; top dose inferred
Protocol: (§1)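 Human cancer cell lines in 384-well plates, medium with 10% serum, drug for 72 h over a 256-fold dose range (nine 2-fold or five 4-fold steps up to the top dose). Adherent lines were fixed and stained with the nucleic acid dye Syto60, suspension lines read with resazurin; signal relative to control wells, capped at 0 and 100%. One two-parameter sigmoid per drug and line, fitted in a mixed model over all curves with the slope shared within a line.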

[2] = compound: Cc1cnc(-c2cnc(NCCNc3ccc(C#N)cn3)nc2-c2ccc(Cl)cc2Cl)[nH]1 [CHIR-99021]
Protocol: as §1

[3] = compound: COc1cc(O)c2c(c1)/C=C/C[C@H](O)[C@H](O)C(=O)/C=C\C[C@H](C)OC2=O [(5Z)-7-Oxozeaenol]; conditions: top dose 10 µM; top dose inferred
Protocol: as §1

[4] = compound: CCn1c(-c2nonc2N)nc2cnc(Oc3cccc(NC(=O)c4ccc(OCCN5CCOCC5)cc4)c3)cc21 [GSK269962A]; conditions: top dose 5 µM; screen: GDSC drug entry 1192; top dose inferred
Protocol: as §1

[5] = compound: C/C=C(/C)C(=O)O[C@H]1C(C)=C2[C@H]([C@@H]1OC(=O)CCCCCCC)[C@@](C)(OC(C)=O)C[C@H](OC(=O)CCC)[C@@]1(O)[C@H]2OC(=O)[C@@]1(C)O [Thapsigargin]; conditions: top dose 0.512 µM; top dose inferred
Protocol: as §1

[6] = compound: COc1cc2ncnc(-n3nc(-c4ccccn4)nc3N)c2cc1OC [CP466722]; conditions: top dose 16 µM; top dose inferred
Protocol: as §1

[7] = compound: COc1cc(N2CCC(O)CC2)ccc1Nc1cc(Nc2ccccc2S(=O)(=O)C(C)C)c2cc[nH]c2n1 [MPS-1-IN-1]; conditions: top dose 20 µM; top dose inferred
Protocol: as §1

[8] = compound: Cc1ccc(F)c(NC(=O)Nc2ccc(-c3cccc4[nH]nc(N)c34)cc2)c1 [ABT-869]; conditions: top dose 1.024 µM; top dose inferred
Protocol: as §1

[9] = compound: O=c1cc(-c2cccc3c2Sc2ccccc2S3)oc(N2CCOCC2)c1 [KU-55933]; conditions: top dose 10 µM
Protocol: as §1

[10] = compound: COc1nc(C)cnc1NS(=O)(=O)c1cccnc1-c1ccc(-c2nnco2)cc1 [Zibotentan]; conditions: top dose 20 µM; top dose inferred
Protocol: as §1

[11] = compound: C=CC(=O)Nc1cc(-n2c(=O)ccc3cnc4ccc(-c5cn[nH]c5)cc4c32)ccc1C [QL-X-138]; conditions: top dose 10.24 µM; top dose inferred
Protocol: as §1

[12] = top dose 2.56 µM, screen: GDSC drug entry 154
[13] = top dose 10 µM, screen: GDSC drug entry 1241, top dose inferred

Row | Cell Line | AUC [1] | IC50 [1] [µM] | AUC [2, 12] | IC50 [2, 12] [µM] | AUC [2, 13] | IC50 [2, 13] [µM] | AUC [3] | IC50 [3] [µM] | AUC [4] | IC50 [4] [µM] | AUC [5] | IC50 [5] [µM] | AUC [6] | IC50 [6] [µM] | AUC [7] | IC50 [7] [µM] | AUC [8] | IC50 [8] [µM] | AUC [9] | IC50 [9] [µM] | AUC [10] | IC50 [10] [µM] | AUC [11] | IC50 [11] [µM]
1 | P12-ICHIKAWA (T-cell lymphoblastic leukaemia, suspension) | 0.99 | > 5 | 0.994 | > 2.56 | 0.994 | > 10 | 0.828 | 4.37 | 0.972 | > 5 | 0.396 | 0.0178 | 0.601 | 1.77 | 0.854 | 10.5 | 0.993 | > 1.02 | 0.987 | > 10 | 0.994 | > 20 | 0.603 | 1.15
2 | PCI-4B (head and neck, adherent) | 0.974 | > 5 | 0.986 | > 2.56 | 0.979 | > 10 | 0.606 | 1.2 | 0.912 | > 5 | 0.176 | 0.0036 | 0.795 | 7.01 | 0.875 | 17.8 | 0.987 | > 1.02 | 0.928 | > 10 | 0.987 | > 20 | 0.571 | 0.988
3 | SF295 (glioma, adherent) | 0.981 | > 5 | 0.965 | > 2.56 | 0.928 | > 10 | 0.752 | 3.56 | 0.819 | 3.13 | 0.169 | 0.00284 | 0.829 | 11 | 0.944 | > 20 | 0.975 | > 1.02 | 0.949 | > 10 | 0.984 | > 20 | 0.781 | 4.61
4 | SISO (cervix, adherent) | 0.988 | > 5 | 0.983 | > 2.56 | 0.973 | > 10 | 0.658 | 1.68 | 0.935 | > 5 | 0.215 | 0.00489 | 0.918 | > 16 | 0.884 | > 20 | 0.98 | > 1.02 | 0.959 | > 10 | 0.988 | > 20 | 0.76 | 3.46
5 | SK-HEP-1 (liver, adherent) | 0.989 | > 5 | 0.989 | > 2.56 | 0.901 | > 10 | 0.409 | 0.359 | 0.668 | 0.884 | 0.204 | 0.00463 | 0.869 | 13.1 | 0.983 | > 20 | 0.982 | > 1.02 | 0.981 | > 10 | 0.989 | > 20 | 0.989 | > 10.2
